{
  "source": "PubChem BioAssay AID488969",
  "about": "(Vanderbilt High Throughput Screening Facility, 2010)",
  "note": "The full ranking holds about 110,000 compounds; the median of “z-score” is about -0.1, and the highest 2% start at about 2. Some of the results follow. Active and inactive are the calls of the source.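 How the source made its calls: active means z-score in the third read window above 3 or below -3; inactive means the rest.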",
  "data": [
    {"target": "Metabotropic glutamate receptor 8 (Rattus norvegicus) (UniProt P70579)", "sequence (P70579 whole entry, looked up)": "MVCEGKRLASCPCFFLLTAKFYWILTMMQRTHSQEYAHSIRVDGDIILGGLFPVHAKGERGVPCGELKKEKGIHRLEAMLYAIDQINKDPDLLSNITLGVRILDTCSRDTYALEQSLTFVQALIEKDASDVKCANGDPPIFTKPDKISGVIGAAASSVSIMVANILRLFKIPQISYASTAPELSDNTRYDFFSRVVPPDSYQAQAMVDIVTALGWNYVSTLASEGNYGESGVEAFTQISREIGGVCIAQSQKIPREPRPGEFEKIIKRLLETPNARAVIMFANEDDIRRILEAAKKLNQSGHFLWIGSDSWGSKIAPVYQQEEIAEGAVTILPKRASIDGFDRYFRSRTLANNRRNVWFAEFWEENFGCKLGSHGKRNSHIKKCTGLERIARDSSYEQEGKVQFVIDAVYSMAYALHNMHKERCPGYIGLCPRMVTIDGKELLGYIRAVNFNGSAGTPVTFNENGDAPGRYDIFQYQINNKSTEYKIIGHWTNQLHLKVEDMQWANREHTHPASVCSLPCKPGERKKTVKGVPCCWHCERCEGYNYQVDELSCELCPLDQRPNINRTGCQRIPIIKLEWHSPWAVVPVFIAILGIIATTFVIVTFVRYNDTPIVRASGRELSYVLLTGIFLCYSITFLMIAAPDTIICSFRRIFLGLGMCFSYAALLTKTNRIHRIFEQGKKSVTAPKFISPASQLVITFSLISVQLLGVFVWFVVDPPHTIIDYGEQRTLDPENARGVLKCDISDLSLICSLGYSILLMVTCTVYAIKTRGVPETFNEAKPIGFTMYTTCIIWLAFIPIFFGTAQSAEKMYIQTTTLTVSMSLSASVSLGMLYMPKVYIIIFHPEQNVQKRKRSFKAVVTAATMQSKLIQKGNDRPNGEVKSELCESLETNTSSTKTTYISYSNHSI", "test": "rat mGluR8 modulators via GIRK flux, primary screen, cell-based, thallium flux, HTS (AID 488969)", "details": "HEK293 rat mGluR8, GIRK (G protein-gated inwardly rectifying potassium channel) thallium flux, FluoZin2; at 10 µM; stronger effect = higher value; submaximal glutamate (EC20) added with thallium", "values": [
      {"compound": "c1ccc2c(c1)ncn2CCCCOc1ccc2c(c1)CCC2", "z-score": -0.463},
      {"compound": "Cc1cc(-c2ccccc2)nc2cc(C(=O)N(Cc3ccccc3)Cc3ccccc3)nn12", "z-score": 0.525},
      {"compound": "CCCCN1C(=O)CC(C(=O)O)C1c1ccc(OC)cc1", "note": "(stereo unspecified)", "z-score": -0.572},
      {"compound": "O=C(NC(=S)Nc1ccc(S(=O)(=O)NC2CCCCC2)cc1)c1cccs1", "z-score": 0.16},
      {"compound": "CCOC(=O)c1sc(NC(=O)Nc2ccc(F)cc2)nc1C", "z-score": -0.238},
      {"compound": "CC(C)Oc1cccc(-c2cc(C(=O)N3CCN(c4ncccn4)CC3)c3ccccc3n2)c1", "z-score": -0.273},
      {"compound": "CCCCC(=O)Nc1ccc(C(=O)Nc2ccc(S(=O)(=O)N3CCCC3)cc2)cc1", "z-score": -0.419},
      {"compound": "Cc1ccc(S(=O)(=O)N2CCC[C@H]2C(=O)OC(C)C(=O)Nc2ncc(Cl)cc2Cl)cc1", "note": "(stereo partly specified)", "z-score": 0.0703},
      {"compound": "O=C(N/N=C/CCc1ccccc1)c1ccc(CN2c3cccc4cccc(c34)S2(=O)=O)cc1", "z-score": -0.0365},
      {"compound": "CCC(C(=O)OCC(=O)Nc1ccc(Cl)c(S(=O)(=O)N(C)C)c1)c1ccccc1", "note": "(stereo unspecified)", "z-score": -2.23},
      {"compound": "CCC1CCCCN1C/C=C/c1ccccc1[N+](=O)[O-]", "note": "(stereo unspecified)", "z-score": 0.136},
      {"compound": "Cc1ccccc1C(=O)N=c1c(C#N)cc2c(=O)n3cccc(C)c3nc2n1Cc1ccco1", "z-score": -0.244},
      {"compound": "O=C(c1cncc(Br)c1)N1CCN(c2ccc(N3CCOCC3)nn2)CC1", "z-score": 0.0127},
      {"compound": "CCCCC(=O)NC(N1CCCCC1)C(Cl)(Cl)Cl", "note": "(stereo unspecified)", "z-score": -0.392},
      {"compound": "Cc1ccc(O)c(NC(=O)c2cccc(NC(=O)c3ccco3)c2)c1", "z-score": -0.336},
      {"compound": "COc1cc(CNc2ccc(N3CCCC3)cc2)ccc1OCc1ccccc1", "z-score": "active: 3.82"},
      {"compound": "CC(C)CC(=O)Nc1cc2nn(-c3ccccc3)nc2cc1Cl", "z-score": 0.0416},
      {"compound": "CCOC(=O)c1c(-c2ccccc2)oc2cc(CN(C)C)c(O)c(CN(C)C)c12", "z-score": 0.295},
      {"compound": "Cn1c(-c2ccc(Br)o2)nc2cc(Br)ccc21", "z-score": -0.104},
      {"compound": "COc1ccc(CCNc2nc(-c3cccnc3)cs2)cc1OC", "z-score": -0.451},
      {"compound": "CC(Sc1nc(-c2ccc(F)cc2)cs1)C(=O)Nc1ccc(Cl)cn1", "note": "(stereo unspecified)", "z-score": -0.19},
      {"compound": "CCOC(=O)c1c(C)nc2sc(C(=O)Nc3ccc(C(C)=O)cc3)c(N)c2c1-c1ccc(OC)cc1", "z-score": -0.136},
      {"compound": "CCC(NC(=O)Nc1ncccc1C)(C(F)(F)F)C(F)(F)F", "z-score": 0.0143},
      {"compound": "Cn1cccc1C(=O)NC(=O)COC(=O)c1ccccc1Sc1ccccc1C#N", "z-score": 0.0541},
      {"compound": "Cc1cc(C)nc(SCNC(=O)c2ccccc2)n1", "z-score": 0.44},
      {"compound": "CNC(=S)N/N=C/c1cn(CCOc2ccccc2OC)c2ccccc12", "z-score": -0.1},
      {"compound": "CCOC(=O)C(Cc1ccccc1)C(=O)Nc1ccc(N(CC)CC)cc1", "note": "(stereo unspecified)", "z-score": 0.385},
      {"compound": "O=C(Nc1nc2ccc(S(=O)(=O)N3CCCCC3)cc2s1)c1cccnc1", "z-score": -0.427},
      {"compound": "O=C(CSc1nnc(-c2cccnc2)n1-c1ccc(SC(F)F)cc1)N1CCCc2ccccc21", "z-score": 0.0656},
      {"compound": "CC(CNC(=O)C(C)C)NC(=O)C(C)C", "note": "(stereo unspecified)", "z-score": -0.447},
      {"compound": "Cc1cccc(OCc2nc3c4c(ncn3n2)-c2ccccc2CC42CCCC2)c1", "z-score": -0.328},
      {"compound": "COC(=O)Cn1nc(-c2ccccc2)c2ccccc21", "z-score": -0.352},
      {"compound": "CCc1nnc(NC(=O)CSc2nnc(-c3ccc(OC)cc3)n2C)s1", "z-score": -0.389},
      {"compound": "O=C(O)C1CC=CCC1C(=O)NCCc1ccccc1", "note": "(stereo unspecified)", "z-score": -0.399},
      {"compound": "CCOC(=O)c1c(C)[nH]c(C2=NNC(=Nc3cccc(Cl)c3)SC2)c1C", "z-score": -0.064},
      {"compound": "NC1=C(c2ccc([N+](=O)[O-])cc2)C(=O)CO1", "z-score": -0.176},
      {"compound": "O=C(Nc1ccc2c(c1)Cc1ccccc1-2)c1ccc(Br)o1", "z-score": 0.178},
      {"compound": "N#CCSc1nnc(COc2cccc3ccccc23)n1-c1ccccc1", "z-score": -0.135},
      {"compound": "COc1ccc(N=CC2=C(O)c3ccccc3C2=O)cc1", "z-score": -0.288},
      {"compound": "O=C(CCC(=O)Nc1ccccc1Cl)NNC(=O)c1ccco1", "z-score": 0.174},
      {"compound": "COC(=O)CSc1nc(-c2cccs2)ccc1C#N", "z-score": -0.281},
      {"compound": "Cc1ccc(-c2nc(CS(=O)CC(=O)NCCN3CCCC3)c(C)o2)cc1", "note": "(stereo unspecified)", "z-score": -0.256},
      {"compound": "Cn1c(SCC(=O)N2CCCc3ccccc32)nc2ccccc2c1=O", "z-score": -0.254},
      {"compound": "O=c1oc2ccccc2c(Nc2ccc(O)cc2)c1[N+](=O)[O-]", "z-score": -0.0699},
      {"compound": "COc1cc(-c2nnc(SCC(=O)Nc3cc(C)on3)n2C)cc(OC)c1O", "z-score": -1.05},
      {"compound": "COc1ccc(CCNC(=O)CN(C)S(=O)(=O)c2cccs2)cc1OC", "z-score": -0.0674},
      {"compound": "NS(=O)(=O)c1ccc(N2N=C(c3ccccc3)CC2c2cccc(F)c2)cc1", "note": "(stereo unspecified)", "z-score": 0.17},
      {"compound": "CCN1C2=NCCCN2c2ccccc21", "z-score": 0.0152},
      {"compound": "CCNc1sc(C(=O)c2cccs2)c(N)c1C#N", "z-score": -0.708},
      {"compound": "Cc1cc(NS(=O)(=O)c2ccc(OCCNS(C)(=O)=O)cc2)no1", "z-score": 0.204},
      {"compound": "C=CC(O)Cc1c(C)n[nH]c1C", "note": "(stereo unspecified)", "z-score": 0.463},
      {"compound": "O=C(CNc1ccccc1)Nc1ccc(F)cc1", "z-score": 0.549},
      {"compound": "CC1(C)Cc2c(C#N)c(N3CCOCC3)nc(-c3ccccc3)c2CO1", "z-score": -0.569},
      {"compound": "Cc1cccc(-c2c3c(=O)n(C)c(=O)n(C)c3cn2-c2ccccc2O)c1", "z-score": -0.0561},
      {"compound": "CCCn1c2ccccc2c2nnc(SCC(=O)Nc3ncccn3)nc21", "z-score": -0.434},
      {"compound": "CCOC(=O)N1CCN(c2c(NCC3CCCO3)c(=O)c2=O)CC1", "note": "(stereo unspecified)", "z-score": -0.352},
      {"compound": "CC(C)NC(=S)NC(=O)c1ccc(Cl)cc1Cl", "z-score": "active: 13.8"},
      {"compound": "CCN(CC)C(=S)Sc1c(-c2ccccc2)c2cc(Cl)ccc2[nH]c1=O", "z-score": 0.274},
      {"compound": "Cc1occc1C(=O)Nc1cc(=O)n(C)c(=O)n1C", "z-score": 0.662},
      {"compound": "CN1CCc2nc(SCCOc3ccccc3)c(C#N)cc2C1", "z-score": -1.48},
      {"compound": "COc1cc([C@H]2[C@@H]3CCCC[C@]3(O)CCN2CC(=O)Nc2ccc(C)cc2C)ccc1O", "z-score": -0.349},
      {"compound": "O=C(O)Cc1csc(NC(=O)c2ccco2)n1", "z-score": 0.104},
      {"compound": "O=C(/C=C/c1ccco1)Nc1cccc(-c2nc3ccccc3[nH]2)c1", "z-score": -0.353},
      {"compound": "Cn1cc(Cl)c(C(=O)OCC(=O)Nc2nc(-c3ccc(Br)cc3)cs2)n1", "z-score": 0.00326},
      {"compound": "CCOC(=O)C(CCCCOc1cccc(CC)c1)C(=O)OCC", "z-score": "active: 3.18"},
      {"compound": "Cc1sc(N)nc1-c1cccs1", "z-score": -0.368},
      {"compound": "COc1ccccc1NC(=O)c1csc2c1CCCC2", "z-score": -0.326},
      {"compound": "O=C(Cc1ccc(-n2c(=O)c3ccccc3n(Cc3ccc(F)cc3)c2=O)cc1)NCC1CCCO1", "note": "(stereo unspecified)", "z-score": -0.318},
      {"compound": "CCCc1[nH]nc2c1C(c1cccnc1)C(C#N)=C(N)O2", "note": "(stereo unspecified)", "z-score": -0.285},
      {"compound": "COCCNC(=O)C(c1ccco1)N(C(=O)Cn1nnc2ccccc21)c1ccc(C)cc1C", "note": "(stereo unspecified)", "z-score": 0.146},
      {"compound": "CCN1C(=O)c2cccc3c(NC(=O)c4ccc(OC)c(OC)c4)ccc1c23", "z-score": -1.48}
    ]}
  ]
}
